# Measurements as given in PubChem BioAssay AID1347073 (National Center for Advancing Translational Sciences (NCATS), 2019).
# In all, about 45,000 compounds went through this assay and about 200 (0.44%) were called active. Inconclusive results (about 7%) are left out. Calls come from the whole dose curve; as a rule, active = well fitted activation curve with a large enough effect; inconclusive = small, poorly fitted or top-dose-only effect; inactive = no such curve, though single readings can be large or run the other way. Some of the results follow.
# Experiment: qHTS of TDP-43 Inhibitors: NCGC Sytravon Library Screen; note: 0% is about no effect; nearly all actives have a fitted effect of over 55% in size
# Conditions: yeast TDP-43 toxicity rescue, BacTiter-Glo growth, 24 h; series mostly up to 46.1 µM; growth rescue (activation): at the top concentration
# Outline: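 TDP-43-expressing yeast, pregrown in raffinose, seeded at OD600 0.02 in galactose medium with compound for 24 hr at 30 deg C. Growth read by BacTiter-Glo luminescence, so rescue of toxicity appears as activation.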
row,SMILES,growth rescue (activation)
1,NC(=O)NC(=O)COC(=O)CCSc1ccccc1,inactive: 0.916%
2,CCN(CC)CCNC(=O)c1ccc(-n2c(C)cc3c2CCCC3=O)cc1,inactive: 11.9%
3,Cc1ccc(S(=O)(=O)N2CC=C(C(=O)NCCC(C)C)CC2)cc1,inactive: 9.27%
4,CC(C)CCN1CCNC(=O)C1CC(=O)N(C)CCCN1CCOCC1 (stereo not given),inactive: 18.9%
5,CCOc1ccc(Br)cc1S(=O)(=O)N1CCCN(C)CC1,inactive: -7.5%
6,Cc1ccc(NC(=S)N(CCCN2CCCC2)Cc2cccn2Cc2ccc(Cl)cc2)cc1,inactive: -5.72%
7,Cc1onc(-c2ccccc2)c1C(=O)Nc1nnc(CC(C)C)s1,inactive: -3.34%
8,C=CCn1c(O)c(C=Nc2ccccc2)sc1=S,inactive: 2.65%
9,C/C(=N\NC(=O)c1ccc(N/N=C(\C)c2ccncc2)cc1)c1ccncc1,inactive: 14.9%
10,CC(=O)Nc1ccc(S(=O)(=O)N2CCN(Cc3cccs3)CC2)cc1,inactive: -3.77%
11,Cc1cc(-c2nn(-c3ccccc3F)cc2CN2CCN(c3ccccn3)CC2)c(C)s1,inactive: 1.15%
12,CC(=O)N1CCN(c2ccc(NCc3cccc4ccccc34)cc2)CC1,inactive: 6.42%
13,O=C(O)CCNS(=O)(=O)c1ccc2c(c1)CCCC2,inactive: 4.85%
14,CCN(Cc1ccccc1)C(=O)C1CCN(CC2CC=CCC2)CC1 (stereo not given),inactive: 3.3%
15,CN(CC(=O)Nc1cccc(F)c1)CC(=O)Nc1cccc(S(=O)(=O)N(C)c2ccccc2)c1,inactive: 20.4%
16,COc1ccc(C)cc1NCc1cc(=O)oc2cc(-c3ccccc3)c(O)cc12,inactive: 26.6%
17,Nc1ncnc2c1ccn2[C@H]1CN(Cc2ccc(Cl)cc2)C[C@@H](CO)O1,inactive: 8.57%
18,COc1ccccc1N1CCN(c2nc(C)cc(=O)[nH]2)CC1,inactive: 1.46%
19,COC(=O)c1ccc(CNCC(O)COc2ccc(-c3ccccc3)cc2)cc1 (stereo not given),inactive: 2.74%
20,COc1ccc(-c2cc(C(=O)OCC(=O)Nc3cc(C)on3)c3ccccc3n2)cc1OC,inactive: 0.438%
21,COCCn1cnc2c1c(=O)n(Cc1cc(C(C)=O)ccc1OC)c(=O)n2Cc1ccccc1,inactive: 11.9%
22,COc1ccc(OC)c(-c2cc(C(F)(F)F)c3c(n2)sc2c(O)cc(=O)[nH]c23)c1,inactive: 8.78%

row,SMILES,growth rescue (activation)
1,Cc1ccc2cc(C)c(SCC(=O)Nc3ccc(S(=O)(=O)N4CCCC4)cc3)nc2c1,inactive: 5.99%
2,Cc1ccc([N+](=O)[O-])cc1NC(=S)NC(=O)c1cccs1,inactive: 12%
3,CCOC(=O)C1CCN(C(=O)COc2ccc3c(c2)OCO3)CC1,inactive: 7.43%
4,COc1ccc(Cl)cc1N(CC(=O)NC(C)(C)C)S(=O)(=O)c1ccc(C)c([N+](=O)[O-])c1,inactive: 10.6%
5,COc1ccc(-c2[nH]ncc2C(=O)NCc2ccc(F)cc2)cc1,inactive: -5.59%
6,Cc1[nH]c2ccccc2c1/C=N/NC(=O)CNC(=O)c1cccs1,inactive: 21.9%
7,Cc1csc(NC(=O)CCC(=O)N(CC(=O)NC2CCCC2)Cc2ccccc2)n1,inactive: 9.17%
8,O=S(=O)(c1ccc(Cl)cc1)N1CCNCC1,inactive: 2.27%
9,CC(=O)NCc1ccc(-c2nc3ccccc3s2)cc1,inactive: -8.82%
10,CCC(=O)NC(c1cccc([N+](=O)[O-])c1)c1c(O)ccc2ccccc12 (stereo not given),inactive: -9.25%
11,Cc1nc2nc[nH]n2c(=O)c1NS(=O)(=O)c1ccc([N+](=O)[O-])cc1,inactive: 5.44%
12,N#C/C(=C\c1ccc2c(c1)OCO2)C(=O)NCc1ccco1,inactive: -0.108%
13,Cc1ccc(NC(=O)Cn2c([N+](=O)[O-])cnc2C)cc1Cl,inactive: 2.28%
14,CCN(CC)CCOC(=O)c1cccc2c1-c1ccccc1C2O (stereo not given),inactive: -3.51%
15,Cn1c(O)c(N=NC(=O)Cn2c(C(F)(F)F)nc3ccccc32)c2ccccc21,inactive: 12.4%
16,O=C(c1cc(-c2ccccc2)on1)N1CCCCCC1,inactive: 22.4%
17,Cc1ccc(CCC(=O)Nc2ccccc2F)s1,inactive: 14.7%
18,CN(C)CCCNc1nc(-c2ccccc2)nc2ccccc12,inactive: 14.8%
19,Cc1ccc(-n2nc3c(=O)n(C(C)C(=O)O)nc(C)c3c2C)cc1 (stereo not given),inactive: -8.74%
20,Cn1c(N)c(C(=O)COC(=O)CNC(=O)c2ccccc2F)c(=O)n(C)c1=O,inactive: -16.6%
21,CCN1CCCC1CNC(=O)C(=O)NCCc1ccc(OC)c(OC)c1 (stereo not given),inactive: -14.9%
22,O=C(NCc1cccnc1)C12CC3CC(CC(C3)C1)C2,inactive: -8.49%

row,SMILES,growth rescue (activation)
1,CCc1ccccc1NC(=S)N(CCN(C)C)C(C)c1ccco1 (stereo not given),inactive: 1.09%
2,CC(=O)c1cccc(NC(=O)Nc2ccc(C)cc2)c1,inactive: -9.95%
3,Cc1c(C(=O)N2CCOCC2)sc(NC(=O)CCl)c1C#N,inactive: 8.42%
4,COC(=O)CN1C(=S)N(c2ccc(OC)cc2)C(=O)/C1=C/c1ccc(OC)cc1,inactive: -4.77%
5,O=C(c1ccco1)N1CCN(c2ncnc3c(-c4ccc(Cl)cc4)nsc23)CC1,inactive: 13.2%
6,Cc1ccc(C)c(N2N=C(C(=O)O)CCC2=O)c1,inactive: 10.2%
7,CCOC(=O)NC(O)C(=O)c1cccs1 (stereo not given),inactive: 24.1%
8,N#Cc1ccccc1NC(=O)COC(=O)c1cccs1,inactive: -11.1%
9,COc1cccc(-c2cc(NC=O)c3ncc(-c4ccc(F)c(Cl)c4)n3c2)c1,inactive: 26.9%
10,CC(=O)N1N=C(c2ccc(C)o2)CC1c1cccc(F)c1 (stereo not given),inactive: 6.06%
11,CCOc1ccc2ccccc2c1/C=N/NC(=O)CNC(=O)c1ccccc1F,inactive: -13.2%
12,Cc1ccc([N+](=O)[O-])cc1NC(=O)c1ccc(-c2ccccc2)cc1,inactive: 1.1%
13,Cc1ccc(NC(=O)C2(C)CCN2C(=O)Cc2ccccc2)cc1C (stereo not given),inactive: 25.7%
14,O=C(Nc1ccc2c(c1)OCO2)c1ccc2sc([C@H]3C[C@H](O)[C@@H](CO)O3)nc2c1,inactive: -2.33%
15,COc1cc(-c2noc(-c3nnn(-c4ccc(Cl)cc4)c3C)n2)cc(OC)c1OC,inactive: 12.1%
16,CSc1nc2ccc(NS(=O)(=O)c3ccc4c(c3)OCCO4)cc2s1,inactive: 24.6%
17,COc1ccccc1/C=C/C(=O)OCC(=O)NC1CCS(=O)(=O)C1 (stereo not given),inactive: 13.5%
18,CC(O)(c1cccc(F)c1)c1nc(-c2cc(F)cc(F)c2)cs1 (stereo not given),inactive: -58.7%
19,CCOc1ccc(NC(=S)N2CCCN(Cc3cccc(Cl)c3)C2)cc1,inactive: 10.7%
20,CCOc1ncccc1C(=O)NCCc1c[nH]c2ccccc12,inactive: 28.4%
21,COC(=O)c1ccc(NC(=S)NCCCn2ccnc2)cc1,inactive: 7.87%
22,O=C(C1CCN(S(=O)(=O)N2CCOCC2)CC1)N1CCN(c2ccccc2F)CC1,inactive: -13.6%

row,SMILES,growth rescue (activation)
1,COc1ccc(-c2ccc(SCC(=O)N3CC(=O)Nc4ccccc43)nn2)cc1,inactive: -8.06%
2,COCCCNc1oc(/C=C/c2ccccc2)nc1C#N,inactive: 26.7%
3,O=S(=O)(Cc1cccc(C(F)(F)F)c1)c1ncn[nH]1,inactive: 3.54%
4,C=CCn1cc(-c2cccc(C(F)(F)F)c2)cc(C#N)c1=O,inactive: 11.2%
5,CC(C)N(CCO)C(=O)CCc1nnc(CCCc2ccccc2)o1,inactive: -8.03%
6,O=C(O)c1ccc[nH]c1=S,inactive: -0.0437%
7,COc1ccc(Nc2nc(-c3ccccc3)c3cc(Br)ccc3n2)cc1,inactive: 7.04%
8,CC(C)Oc1ccc(CNC(=O)c2ccc3c(c2)N(Cc2ccc(F)cc2)CCS3)cc1,inactive: -0.275%
9,CC(=O)NCCc1nc2ccccc2n1CCc1ccccc1,inactive: -13.6%
10,COC(=O)c1ccccc1NC(=O)COC(=O)/C=C/c1cccs1,inactive: 12.1%
11,Cc1cc(NC(=O)CCCn2nc([N+](=O)[O-])cc2C)no1,inactive: -6.2%
12,COc1ccc(C(=O)NN/C(=N/S(=O)(=O)c2ccc(C)cc2)c2ccccc2)cc1,inactive: 20.8%
13,COCCN(C(=S)Nc1ccccc1C)C(C)c1cccs1 (stereo not given),inactive: 9.84%
14,O=C(c1ccccc1NS(=O)(=O)c1cccc(C(F)(F)F)c1)N1CCc2ccccc21,inactive: 14.3%
15,CC(=O)Nc1scc(-c2ccccc2)[n+]1-c1ccc(C)cc1,inactive: 26.4%
16,Cc1cc(C)nc(/N=C(\N)Nc2ccc(OCc3ccccc3)cc2)n1,inactive: 2.51%
17,O=c1c2c(n3cnnc3n1-c1ccccc1)-c1ccccc1CC21CCCC1,inactive: -8.6%
18,Cc1oc(-c2ccc(-c3ccccc3)cc2)nc1CN1CCN(CC(=O)N(C)C)CC1,inactive: 9.83%
19,O=S1(=O)CCC(=Nc2ccc(Cl)cc2)c2ccsc21,inactive: 2.61%
20,O=C(Nc1ccccc1C(=O)Nc1ccncc1)c1ccccc1,inactive: -6.62%
21,O=C(COC(=O)C1CCN(S(=O)(=O)c2cccs2)CC1)Nc1ccccc1,inactive: 5.32%
22,Cc1onc(-c2ccccc2Cl)c1C(=O)N1CCN(C)CC1,inactive: 7.67%

row,SMILES,growth rescue (activation)
1,CCC1(Cc2ccccc2)NC(=O)c2ccccc2O1 (stereo not given),inactive: 13.6%
2,O=c1[nH]c(C2CCCCC2)nc2ccccc12,inactive: 38.6%
3,CC(C)(CNC(=O)C1CCN(S(=O)(=O)c2cc([N+](=O)[O-])ccc2Cl)CC1)N1CCOCC1,inactive: 1.27%
4,CC(=O)c1c(C)[nH]c(C(=O)OCc2cc(-c3ccco3)on2)c1C,inactive: 10.8%
5,COc1ccc(CN(C)CC(=O)Nc2ccc(N3CCOCC3)cc2)cc1OC,inactive: 12.4%
6,CCOc1ccc2[nH]c(C(=O)N/N=C/c3ccc(OC)cc3)cc2c1,inactive: 11.5%
7,Cc1cccc(CCNS(=O)(=O)c2cnc[nH]2)c1,inactive: 13.1%
8,CC(NS(=O)(=O)c1ccc2c(c1)CC(=O)N2C)c1ccccc1 (stereo not given),inactive: -9.22%
9,Cc1ccc(C(=O)N2CCCCC2)cc1S(=O)(=O)N1CCOCC1,inactive: 24%
10,O=c1[nH]nc(-c2cccs2)c2ccccc12,inactive: 5.13%
11,Cc1cc2cc(CN(Cc3ccc4c(c3)OCO4)C(=O)c3ccco3)c(=O)[nH]c2cc1C,inactive: 20.4%
12,Cc1cccn2c(CN(C)C3CCOC3)c(C(=O)N3CCCCC3)nc12 (stereo not given),inactive: 1.85%
13,COc1ccc(CN2CCNC(=O)C2CC(=O)NCCc2nc(C)c(C)s2)c(OC)c1 (stereo not given),inactive: 10.7%
14,Cc1ccc(CN2CCN(Cc3cn(C(C)C)c4ccccc34)CC2CCO)o1 (stereo not given),inactive: 22.2%
15,O=C1C2C3C=CC(O3)C2C(=O)N1CC(O)c1ccccc1 (stereo not given),inactive: -23.6%
16,Cc1[nH]n(-c2ccccc2)c(=O)c1C=NC1CCCCCC1,inactive: 16.6%
17,COc1ccccc1/C=C(/CC(=O)NCc1ccccc1)c1nc2ccccc2s1,inactive: 21.8%
18,CCOc1ccccc1N1CCN(C(=S)Nc2ccc(S(N)(=O)=O)cc2)CC1,inactive: -1.31%
19,COc1cccc(OC)c1C(=O)NC(=S)Nc1ccc2oc(-c3ccncc3)nc2c1,inactive: 14.1%
20,O=C(Nc1ccccc1N1CCOCC1)c1ccc([N+](=O)[O-])s1,inactive: -75%
21,Cc1ccc(C)[n+](CC(=O)N2CCCCC2)c1,inactive: -15.1%
22,O=C1N/C(=N/N=C/c2ccccc2O)SC1Cc1ccc(F)cc1 (stereo not given),inactive: 18.5%
